# From the supplement of paper PMC8728848
# Some of the results follow.
# B1: SSR2 (Sclerotium rolfsii) (protein)
# chain: MVYKITVRVYQTNPDAFFHPVEKTVWKYANGGTWSITDDQHVLTMGGSGTSGTLRFHADNGESFTATFGVHNYKRWCDIVTNLAADETGMVINQQYYSQKNREEARERQLSNYQVKNAKGRNFQIVYTEAEGNDLHANLIIG
# Columns and labels:
# Assay in all cases: glycan array binding signal (z-score within array); higher = stronger binding
# Conditions in all cases: glycan notation: IUPAC condensed, linker removed
# [1] = biological target: Neu5Ac(a2-6)Gal(b1-4)GlcNAc(b1-6)[Gal(b1-3)GlcNAc(b1-3)]Gal(b1-4)Glc
# Outline: (§1)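 Glycan array data were curated from 3228 arrays in the Consortium for Functional Glycomics database and kept only where the protein sequence was available. Glycan names were converted to IUPAC-condensed notation, and columns mapping to the same glycan were averaged. The binding signal is a within-array Z-score, averaged across arrays of the same protein sequence at different concentrations or buffers and across linkers. Negative Z-scores can be read as non-binding.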
# [2] = biological target: Neu5Ac(a2-6)Gal(b1-4)GlcNAc(b1-6)[Gal(b1-3)]GalNAc
# Outline: as §1
# [3] = biological target: Neu5Ac(a2-6)Gal(b1-4)GlcNAc6S
# Outline: as §1
# [4] = biological target: Neu5Ac(a2-6)GalNAc
# Outline: as §1
# [5] = biological target: Neu5Ac(a2-6)GalNAc(b1-4)GlcNAc
# Outline: as §1
# [6] = biological target: Neu5Ac(a2-6)GalNAc(b1-4)GlcNAc6S
# Outline: as §1
# [7] = biological target: Neu5Ac(a2-6)GlcNAc(b1-4)GlcNAc
# Outline: as §1
# [8] = biological target: Neu5Ac(a2-6)GlcNAc(b1-4)GlcNAc(b1-4)GlcNAc
# Outline: as §1
# [9] = biological target: Neu5Ac(a2-8)Neu5Ac
# Outline: as §1
# [10] = biological target: Neu5Ac(a2-8)Neu5Ac(a2-3)Gal(b1-3)GalNAc(b1-4)[Neu5Ac(a2-3)]Gal(b1-4)Glc
# Outline: as §1
# [11] = biological target: Neu5Ac(a2-8)Neu5Ac(a2-3)Gal(b1-3)GalNAc(b1-4)[Neu5Ac(a2-8)Neu5Ac(a2-3)]Gal(b1-4)Glc
# Outline: as §1
# [12] = biological target: Neu5Ac(a2-8)Neu5Ac(a2-3)Gal(b1-4)Glc
# Outline: as §1
# [13] = biological target: Neu5Ac(a2-8)Neu5Ac(a2-3)Gal(b1-4)GlcNAc
# Outline: as §1
# [14] = biological target: Neu5Ac(a2-8)Neu5Ac(a2-3)[Gal(b1-3)GalNAc(b1-4)]Gal(b1-4)Glc
# Outline: as §1
# [15] = biological target: Neu5Ac(a2-8)Neu5Ac(a2-3)[GalNAc(b1-4)]Gal(b1-4)Glc
# Outline: as §1
# [16] = biological target: Neu5Ac(a2-8)Neu5Ac(a2-8)Neu5Ac
# Outline: as §1
# [17] = biological target: Neu5Ac(a2-8)Neu5Ac(a2-8)Neu5Ac(a2-3)Gal(b1-4)Glc
# Outline: as §1
# [18] = biological target: Neu5Ac(a2-8)Neu5Ac(a2-8)Neu5Ac(a2-3)[Gal(b1-3)GalNAc(b1-4)]Gal(b1-4)Glc
# Outline: as §1
# [19] = biological target: Neu5Ac(a2-8)Neu5Ac(a2-8)Neu5Ac(a2-3)[GalNAc(b1-4)]Gal(b1-4)Glc
# Outline: as §1
# [20] = biological target: Neu5Ac(a2-8)Neu5Ac(a2-8)Neu5Ac(a2-8)Neu5Ac(a2-3)[GalNAc(b1-4)]Gal(b1-4)Glc
# Outline: as §1
# [21] = biological target: Neu5Ac(a2-8)Neu5Gc(a2-3)Gal(b1-4)GlcNAc
# Outline: as §1
# [22] = biological target: Neu5Ac(b2-6)Gal(b1-4)GlcNAc
# Outline: as §1
# [23] = biological target: Neu5Ac(b2-6)GalNAc
# Outline: as §1
# [24] = biological target: Neu5Ac9Ac(a2-3)Gal(b1-3)GlcNAc
# Outline: as §1
# [25] = biological target: Neu5Ac9Ac(a2-3)Gal(b1-4)GlcNAc
# Outline: as §1
# [26] = biological target: Neu5Ac9Ac(a2-6)Gal(b1-4)GlcNAc
# Outline: as §1
# [27] = biological target: Neu5Gc(a2-3)Gal(b1-3)GlcNAc
# Outline: as §1
# [28] = biological target: Neu5Gc(a2-3)Gal(b1-3)[Fuc(a1-4)]GlcNAc
# Outline: as §1
# [29] = biological target: Neu5Gc(a2-3)Gal(b1-4)Glc
# Outline: as §1
# [30] = biological target: Neu5Gc(a2-3)Gal(b1-4)GlcNAc
# Outline: as §1
# [31] = biological target: Neu5Gc(a2-3)Gal(b1-4)GlcNAc(b1-3)Gal(b1-4)GlcNAc(b1-2)Man(a1-3)[Neu5Gc(a2-3)Gal(b1-4)GlcNAc(b1-3)Gal(b1-4)GlcNAc(b1-2)Man(a1-6)]Man(b1-4)GlcNAc(b1-4)GlcNAc
# Outline: as §1
# [32] = biological target: Neu5Gc(a2-3)Gal(b1-4)[Fuc(a1-3)]GlcNAc
# Outline: as §1
# [33] = biological target: Neu5Gc(a2-6)Gal(b1-4)GlcNAc
# Outline: as §1
# [34] = biological target: Neu5Gc(a2-6)GalNAc
# Outline: as §1
# [35] = biological target: Neu5Gc(a2-8)Neu5Ac(a2-3)Gal(b1-4)GlcNAc
# Outline: as §1
# [36] = biological target: Neu5Gc(a2-8)Neu5Gc(a2-3)Gal(b1-4)GlcNAc
# Outline: as §1
# [37] = biological target: Neu5Gc(a2-8)Neu5Gc(a2-3)Gal(b1-4)GlcNAc(b1-3)Gal(b1-4)GlcNAc
# Outline: as §1
# [38] = biological target: Neu5Gc(a2-8)Neu5Gc(a2-6)Gal(b1-4)GlcNAc
# Outline: as §1
# [39] = biological target: Neu5Gc(b2-6)Gal(b1-4)GlcNAc
# Outline: as §1
binder,measurement,setting,value
B1,glycan array binding signal (z-score),[1],-0.293
same,glycan array binding signal (z-score),[2],0.934
same,glycan array binding signal (z-score),[3],-0.277
same,glycan array binding signal (z-score),[4],-0.284
same,glycan array binding signal (z-score),[5],-0.288
same,glycan array binding signal (z-score),[6],-0.285
same,glycan array binding signal (z-score),[7],-0.287
same,glycan array binding signal (z-score),[8],-0.292
same,glycan array binding signal (z-score),[9],-0.281
same,glycan array binding signal (z-score),[10],-0.271
same,glycan array binding signal (z-score),[11],-0.278
same,glycan array binding signal (z-score),[12],-0.288
same,glycan array binding signal (z-score),[13],-0.289
same,glycan array binding signal (z-score),[14],-0.287
same,glycan array binding signal (z-score),[15],-0.279
same,glycan array binding signal (z-score),[16],-0.286
same,glycan array binding signal (z-score),[17],-0.277
same,glycan array binding signal (z-score),[18],-0.278
same,glycan array binding signal (z-score),[19],-0.267
same,glycan array binding signal (z-score),[20],-0.285
same,glycan array binding signal (z-score),[21],-0.277
same,glycan array binding signal (z-score),[22],-0.277
same,glycan array binding signal (z-score),[23],-0.282
same,glycan array binding signal (z-score),[24],-0.282
same,glycan array binding signal (z-score),[25],-0.236
same,glycan array binding signal (z-score),[26],-0.291
same,glycan array binding signal (z-score),[27],-0.29
same,glycan array binding signal (z-score),[28],-0.28
same,glycan array binding signal (z-score),[29],-0.276
same,glycan array binding signal (z-score),[30],-0.298
same,glycan array binding signal (z-score),[31],-0.277
same,glycan array binding signal (z-score),[32],-0.284
same,glycan array binding signal (z-score),[33],-0.28
same,glycan array binding signal (z-score),[34],-0.292
same,glycan array binding signal (z-score),[35],-0.287
same,glycan array binding signal (z-score),[36],-0.285
same,glycan array binding signal (z-score),[37],-0.286
same,glycan array binding signal (z-score),[38],-0.286
same,glycan array binding signal (z-score),[39],-0.28
